Reference: the supplement of paper PMC4604168 (melanoma cell lines)
The list shows a part of the results. Many values rest on one well or one pass, so single values are uncertain.

Columns and labels:
Assay in all cases: cell count relative to DMSO control; melanoma cells; higher = more viable cells
Details in all cases: library dose: standard library concentration; 72 h
[1] = tested on: SkMel28
[2] = tested on: SkMel2
[3] = tested on: SkMel30
[4] = tested on: SkMel5
[5] = tested on: UACC257
[6] = tested on: UACC62
[7] = tested on: WM115
[8] = tested on: WM1716
[9] = tested on: WM1745
[10] = tested on: WM3526
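Also: cells treated in 1,536-well plates, then fixed and DAPI-stained, with nuclei counted from automated high-throughput microscope images.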

Row | SMILES | cell count [1] [%] | cell count [2] [%] | cell count [3] [%] | cell count [4] [%] | cell count [5] [%] | cell count [6] [%] | cell count [7] [%] | cell count [8] [%] | cell count [9] [%] | cell count [10] [%]
1 | CC(C)C[C@H](NC(=O)[C@H](Cc1ccccc1)NC(=O)c1cnccn1)B(O)O [Bortezomib] + CCCS(=O)(=O)Nc1ccc(F)c(C(=O)c2c[nH]c3ncc(Cl)cc23)c1F [PLX4720] (first compound 0.005 µM, partner dose 0.4 µM) | 34.2 | 34.6 | 30.8 | 38.3 | 73.2 | 59.7 | 38.5 | 18.2 | 13.5 | 27.7
2 | Cc1cc(Nc2cc(N3CCN(C)CC3)nc(/C=C/c3ccccc3)n2)n[nH]1 + Nc1nc(F)nc2c1ncn2[C@@H]1O[C@H](CO)[C@@H](O)[C@@H]1O [fludarabine] (first compound 0.2 µM, partner dose 1 µM) | 1.63 | 0.858 | 15.8 | 21.4 | 33.7 | 56.9 | 71.5 | 90.2 | 60.2 | 21.6
3 | COc1ccc(C2=N[C@@H](c3ccc(Cl)cc3)[C@@H](c3ccc(Cl)cc3)N2C(=O)N2CCNC(=O)C2)c(OC(C)C)c1 [Nutlin-3] + C[C@@H]1CCN(C(=O)CC#N)C[C@@H]1N(C)c1ncnc2[nH]ccc12 [CP690550] (first compound 0.5 µM, partner dose 5 µM) | 69 | 91.4 | 104 | 67.9 | 83 | 66.5 | 71.7 | 76.6 | 63 | 90.7
4 | COc1ccc(C2=N[C@@H](c3ccc(Cl)cc3)[C@@H](c3ccc(Cl)cc3)N2C(=O)N2CCNC(=O)C2)c(OC(C)C)c1 [Nutlin-3] + CC(C)C[C@H](NC(=O)[C@H](Cc1ccccc1)NC(=O)c1cnccn1)B(O)O [Bortezomib] (first compound 0.5 µM, partner dose 0.005 µM) | 27.2 | 57.2 | 38.3 | 23.6 | 63.2 | 56.1 | 22 | 15.9 | 15.7 | 25.7
5 | COc1ccc(C2=N[C@@H](c3ccc(Cl)cc3)[C@@H](c3ccc(Cl)cc3)N2C(=O)N2CCNC(=O)C2)c(OC(C)C)c1 [Nutlin-3] + Nc1nc(F)nc2c1ncn2[C@@H]1O[C@H](CO)[C@@H](O)[C@@H]1O [fludarabine] (first compound 0.5 µM, partner dose 1 µM) | 2.64 | 2.09 | 15.5 | 20.5 | 30.4 | 43 | 87.6 | 83.4 | 86.9 | 27.7
6 | COc1ccc(C2=N[C@@H](c3ccc(Cl)cc3)[C@@H](c3ccc(Cl)cc3)N2C(=O)N2CCNC(=O)C2)c(OC(C)C)c1 [Nutlin-3] + Cn1cncc1[C@@](N)(c1ccc(Cl)cc1)c1ccc2c(c1)c(-c1cccc(Cl)c1)cc(=O)n2C [tipifarnib] (first compound 0.5 µM, partner dose 0.05 µM) | 44.2 | 64.9 | 98.5 | 60.7 | 73.3 | 55.9 | 52.9 | 59.5 | 77.5 | 84.6
7 | COc1ccc(C2=N[C@@H](c3ccc(Cl)cc3)[C@@H](c3ccc(Cl)cc3)N2C(=O)N2CCNC(=O)C2)c(OC(C)C)c1 [Nutlin-3] + O=C(O)[C@@H]1[O][Sb](=[O])([O][Sb]2(=[O])[O][C@H]([C@H](O)CO)[C@H](O)[C@H](C(=O)O)[O]2)[O][C@H]([C@H](O)CO)[C@@H]1O [stibogluconate] (first compound 0.5 µM, partner dose 10 µM) | 42.8 | 92.4 | 109 | 71.5 | 67.4 | 59.9 | 96.6 | 72.7 | 74.8 | 101
8 | Cn1c(=O)n(-c2ccc(C(C)(C)C#N)cc2)c2c3cc(-c4cnc5ccccc5c4)ccc3ncc21 + CNC(=O)c1cc(Oc2ccc(NC(=O)Nc3ccc(Cl)c(C(F)(F)F)c3)cc2)ccn1 [sorafenib] (first compound 0.02 µM, partner dose 2 µM) | 55.1 | 52.9 | 76.6 | 65.6 | 89.6 | 60.8 | 61.6 | 76.7 | 83.7 | 56.5
9 | Cc1cn(-c2cc(NC(=O)c3ccc(C)c(Nc4nccc(-c5cccnc5)n4)c3)cc(C(F)(F)F)c2)cn1 [nilotinib] + O=C(O)c1ccc(-c2c[nH]c3ncc(-c4ccccc4)cc23)cc1C1CCCC1 [GSK650394] (first compound 1 µM, partner dose 0.8 µM) | 81.5 | 94.3 | 123 | 78.4 | 92.8 | 97.9 | 95.3 | 85.2 | 73.8 | 92.1
10 | COc1ccc(C2=N[C@@H](c3ccc(Cl)cc3)[C@@H](c3ccc(Cl)cc3)N2C(=O)N2CCNC(=O)C2)c(OC(C)C)c1 [Nutlin-3] + CNC(=O)c1cc(Oc2ccc(NC(=O)Nc3ccc(Cl)c(C(F)(F)F)c3)cc2)ccn1 [sorafenib] (first compound 0.5 µM, partner dose 2 µM) | 91.1 | 96.7 | 123 | 92.4 | 88.1 | 56.4 | 116 | 84.6 | 97.4 | 106
11 | Cc1cc(Nc2cc(N3CCN(C)CC3)nc(/C=C/c3ccccc3)n2)n[nH]1 + Cn1cncc1[C@@](N)(c1ccc(Cl)cc1)c1ccc2c(c1)c(-c1cccc(Cl)c1)cc(=O)n2C [tipifarnib] (first compound 0.2 µM, partner dose 0.05 µM) | 44.7 | 76.1 | 80.6 | 74.9 | 78.9 | 58.5 | 41.6 | 60.7 | 82 | 63.9
12 | COc1ccc(C2=N[C@@H](c3ccc(Cl)cc3)[C@@H](c3ccc(Cl)cc3)N2C(=O)N2CCNC(=O)C2)c(OC(C)C)c1 [Nutlin-3] + Nc1ncn([C@H]2C[C@H](O)[C@@H](CO)O2)c(=O)n1 [decitabine] (first compound 0.5 µM, partner dose 0.5 µM) | 48.6 | 92.8 | 88.4 | 64.3 | 74.8 | 52 | 62.6 | 68.1 | 78.1 | 84.7
13 | Cc1cn(-c2cc(NC(=O)c3ccc(C)c(Nc4nccc(-c5cccnc5)n4)c3)cc(C(F)(F)F)c2)cn1 [nilotinib] + C=C(c1ccc(C(=O)O)cc1)c1cc2c(cc1C)C(C)(C)CCC2(C)C [Bexarotene] (first compound 1 µM, partner dose 10 µM) | 107 | 87.9 | 126 | 67.6 | 107 | 74.9 | 87.1 | 96.7 | 69.6 | 73.4
14 | Cn1c(=O)n(-c2ccc(C(C)(C)C#N)cc2)c2c3cc(-c4cnc5ccccc5c4)ccc3ncc21 + Cn1nnc2c(C(N)=O)ncn2c1=O [temozolomide] (first compound 0.02 µM, partner dose 10 µM) | 32.7 | 69.3 | 60.7 | 86.6 | 107 | 67.3 | 73 | 54.5 | 95.9 | 74.8
15 | Cc1cn(-c2cc(NC(=O)c3ccc(C)c(Nc4nccc(-c5cccnc5)n4)c3)cc(C(F)(F)F)c2)cn1 [nilotinib] + Cn1c(=O)n(-c2ccc(C(C)(C)C#N)cc2)c2c3cc(-c4cnc5ccccc5c4)ccc3ncc21 [NVP-BEZ235] (first compound 1 µM, partner dose 0.02 µM) | 44.9 | 67.4 | 91.3 | 60.3 | 107 | 59.5 | 64.3 | 77.9 | 83.3 | 66
16 | CC(C)C[C@H](NC(=O)[C@H](Cc1ccccc1)NC(=O)c1cnccn1)B(O)O [Bortezomib] + CS(=O)(=O)CCNCc1ccc(-c2ccc3ncnc(Nc4ccc(OCc5cccc(F)c5)c(Cl)c4)c3c2)o1 [lapatinib] (first compound 0.005 µM, partner dose 4 µM) | 21.2 | 26.9 | 18.5 | 28.3 | 71 | 38.2 | 21.9 | 19.5 | 13.6 | 20.7
17 | COc1ccc(C2=N[C@@H](c3ccc(Cl)cc3)[C@@H](c3ccc(Cl)cc3)N2C(=O)N2CCNC(=O)C2)c(OC(C)C)c1 [Nutlin-3] + Cc1nc(Nc2ncc(C(=O)Nc3c(C)cccc3Cl)s2)cc(N2CCN(CCO)CC2)n1 [dasatanib] (first compound 0.5 µM, partner dose 0.02 µM) | 42.4 | 87 | 80.5 | 57.7 | 84.7 | 69.4 | 60.6 | 55.2 | 50.1 | 76.7
18 | Cn1c(=O)n(-c2ccc(C(C)(C)C#N)cc2)c2c3cc(-c4cnc5ccccc5c4)ccc3ncc21 + C=CCNC1=C2C[C@@H](C)C[C@H](OC)[C@H](O)[C@@H](C)/C=C(\C)[C@H](OC(N)=O)[C@@H](OC)/C=C\C=C(/C)C(=O)NC(=CC1=O)C2=O [Tanespimycin] (first compound 0.02 µM, partner dose 0.01 µM) | 43.1 | 70.3 | 67.6 | 43.5 | 100 | 62.1 | 12 | 61.3 | 61.5 | 53.7
19 | Cn1c(=O)n(-c2ccc(C(C)(C)C#N)cc2)c2c3cc(-c4cnc5ccccc5c4)ccc3ncc21 + CN1CCN(c2ccc3nc(-c4c(N)c5c(F)cccc5[nH]c4=O)[nH]c3c2)CC1 [Dovitinib] (first compound 0.02 µM, partner dose 0.5 µM) | 32 | 50.9 | 70.5 | 84.1 | 99.4 | 69.6 | 81.8 | 65.2 | 62.7 | 78.8
20 | CC(C)C[C@H](NC(=O)[C@H](Cc1ccccc1)NC(=O)c1cnccn1)B(O)O [Bortezomib] + O=C(O)c1ccc(-c2c[nH]c3ncc(-c4ccccc4)cc23)cc1C1CCCC1 [GSK650394] (first compound 0.005 µM, partner dose 0.8 µM) | 31.6 | 36.1 | 35 | 37 | 68 | 76 | 23.6 | 37.8 | 33.7 | 30
